# Experimental data as given in the supplement of paper PMC9446081.
# The whole screen tested about 39,000 compounds, of which about 220 (0.56%) showed activity. Some of the results follow.
# System: Escherichia coli K-12 BW25113
# Assay: relative growth (OD600 normalised to plate interquartile mean) (fraction); higher = less growth inhibition, active = 0.2 or less
# Conditions: 50 µM; LB; incubation time: overnight (16-24 h)
# 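Also: static incubation at 37 °C against the wild-type strain, values averaged over two biological replicates.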
row,Structure (SMILES),relative growth
1,C[C@H]1CN([C@@H](C)CO)S(=O)(=O)c2ccc(C#CCN(C)C)cc2O[C@H]1CN(C)C(=O)CN(C)C,inactive: 0.91
2,Cc1ccc(S(=O)(=O)N(C)C[C@@H]2Oc3ccc(NC(=O)NC(C)C)cc3C(=O)N([C@@H](C)CO)C[C@H]2C)cc1,inactive: 1
3,COc1ccc(S(=O)(=O)N(C)C[C@H]2Oc3c(NS(C)(=O)=O)cccc3C(=O)N([C@@H](C)CO)C[C@H]2C)cc1,inactive: 0.98
4,Fc1cccc(CSCc2c(F)cccc2Cl)c1,inactive: 0.83
5,COc1ccc2c3c([nH]c2c1)[C@H](CO)N(C[C@]13CN(C1)S(=O)(=O)C)C(=O)c1cnccn1,inactive: 0.999
6,C[C@H]1CN([C@@H](C)CO)S(=O)(=O)c2ccc(C#Cc3ccncc3)cc2O[C@H]1CN(C)S(=O)(=O)c1ccc(F)cc1,inactive: 0.97
7,C[C@@H]1CCCCO[C@@H](CN(C)CC2CCCCC2)[C@@H](C)CN([C@H](C)CO)C(=O)c2cc(NS(=O)(=O)c3ccc(F)cc3)ccc2O1,inactive: 0.998
8,C[C@@H]1CN([C@@H](C)CO)C(=O)c2cc(NC(=O)Nc3cccc4ccccc34)ccc2O[C@@H](C)CCCCO[C@@H]1CN(C)Cc1ccncc1,inactive: 0.888
9,C[C@@H]1CCCCO[C@H](CN(C)C(=O)Nc2ccc3c(c2)OCO3)[C@@H](C)CN([C@H](C)CO)C(=O)c2cc(NS(=O)(=O)c3ccc(F)cc3)ccc2O1,inactive: 1.02
10,C[C@@H]1CC[C@@]2(OC1)O[C@H]1C[C@H]3[C@H]4CC=C5C[C@@H](O[C@@H]6O[C@H](CO)[C@@H](O[C@@H]7O[C@@H](C)[C@H](O)[C@@H](O)[C@H]7O[C@@H]7O[C@@H](C)[C@H](O)[C@@H](O)[C@H]7O)[C@H](O)[C@H]6O)CC[C@]5(C)[C@@H]4CC[C@]3(C)[C@H]1[C@@H]2C,inactive: 0.872
11,C[C@@H]1CN([C@@H](C)CO)C(=O)c2cccc(NC(=O)c3ccc(-c4nccs4)cc3)c2O[C@@H]1CN(C)C(=O)Nc1cccc2ccccc12,inactive: 1.03
12,COc1ncnc(N)c1OC,inactive: 1.02
13,C[C@@H]1CCCCO[C@H](CN(C)CC2CCCCC2)[C@H](C)CN([C@@H](C)CO)C(=O)c2cc(NC(=O)NC3CCCCC3)ccc2O1,inactive: 0.961
14,O=C(C=Cc1ccc(O)c(O)c1)OC1CC(O)(C(=O)O)CC(O)C1O (stereo not given),inactive: 1.04
15,NNC(=O)c1ccc(OC[C@@H](O)CO)cc1O,inactive: 1.01
16,O=C(O)COc1nn(Cc2ccccc2)c2ccccc12,inactive: 1.07
17,CC(C)NC(=O)Nc1ccc2c(c1)C(=O)N([C@H](C)CO)C[C@H](C)[C@@H](CN(C)S(=O)(=O)c1ccc(Cl)cc1)O2,inactive: 1.01
18,C[C@@H]1CN([C@H](C)CO)C(=O)c2cccc(NC(=O)NC3CCCCC3)c2O[C@H]1CN(C)Cc1ccc(Oc2ccccc2)cc1,inactive: 0.946
19,COCC(=O)Nc1ccc2c(c1)C(=O)N(C)C[C@H](OC)[C@H](C)CN(Cc1ccccc1F)[C@@H](C)CO2,inactive: 1.04
20,COc1cccc(-c2cn(CC[C@H]3CC[C@@H](NC(=O)CN(C)C)[C@@H](CO)O3)nn2)c1,inactive: 0.998
21,S=C=Nc1ccc(N=C=S)cc1,inactive: 1.02
22,CCC(=C(c1ccccc1)c1ccc(OCCN(C)C)cc1)c1ccccc1.O=C(O)CC(O)(CC(=O)O)C(=O)O,inactive: 0.642
23,Cc1cccnc1[C@H](c1ccc(F)cc1)N(C)C(=O)C1CCN(CCn2cnc3c2c(=O)n(C)c(=O)n3C)CC1,inactive: 1
24,CCc1ccc(/C=C2\SC(=O)N(CCCCCCNC(=O)c3ccccc3Nc3ccc([N+](=O)[O-])c4nonc34)C2=O)cc1,inactive: 0.982
25,CN1C(=O)c2cc(NC(=O)c3ccc(C(F)(F)F)cc3)ccc2OC[C@@H]2O[C@H](CC(=O)NC3Cc4ccccc4C3)CC[C@H]21,inactive: 1.03
26,CC(C)N1C[C@H](C)[C@@H](CN(C)Cc2ccc(Oc3ccccc3)cc2)Oc2c(C(=O)Nc3ccncc3)cccc2C1=O,inactive: 0.985
27,COc1ccc(S(=O)(=O)N(C)C[C@@H]2Oc3c(NC(=O)NC(C)C)cccc3C(=O)N([C@@H](C)CO)C[C@@H]2C)cc1,inactive: 1.03
28,COc1ccccc1S(=O)(=O)N(C)C[C@@H]1Oc2cc(C#CCC(C)C)ccc2S(=O)(=O)N([C@@H](C)CO)C[C@H]1C,inactive: 0.98
29,O=C(C[C@H]1CC[C@H]2[C@@H](COC[C@H](O)CN2S(=O)(=O)c2ccc(Oc3ccccc3)cc2)O1)NCCN1CCCCC1,inactive: 0.998
30,CC[C@@H](C)CCCCC(=O)N[C@@H](CCN)C(=O)N[C@H](C(=O)N[C@@H](CCN)C(=O)N[C@H]1CCNC(=O)[C@H]([C@@H](C)O)NC(=O)[C@H](CCN)NC(=O)[C@H](CCN)NC(=O)[C@H](CC(C)C)NC(=O)[C@@H](Cc2ccccc2)NC(=O)[C@@H](CCN)NC1=O)[C@@H](C)O,active: 0.0424
